Data: patent US10407421B2, “Bicyclic aryl monobactam compounds and methods of use thereof for the treatment of bacterial infections” (priority 2016, dated 2019)
Counter-ions that a name gives are not always drawn. At least one read-out could not be matched to a standard name with certainty.

Experiments:
Type in all cases: cell-based
Conditions in all cases: in the presence of β lactamase inhibitor Relebactam 4 μg/mL; 22 hours at 35±2° C.; lowest concentration inhibiting 95% of growth (OD600)
[1] = tested on: Acinetobacter baumannii expressing TEM-1, AmpC, and Oxa-24/40 (CL6188); assay: Growth inhibitory concentration (OD600), Acinetobacter baumannii CL6188
[2] = tested on: Escherichia coli expressing NDM-1 (CLB30016); assay: Growth inhibitory concentration (OD600), Escherichia coli CLB30016
[3] = tested on: Klebsiella pneumoniae expressing KPC-1 (CL6569); assay: Growth inhibitory concentration (OD600), Klebsiella pneumoniae CL6569
[4] = tested on: Pseudomonas aeruginosa expressing AmpC (CL5701); assay: Growth inhibitory concentration (OD600), Pseudomonas aeruginosa CL5701

Row | SMILES | AB_CL6188 MITC95 [1] [µM] | EC_CLB30016 MITC95 [2] [µM] | KP_CL6569 MITC95 [3] [µM] | PA_CL5701 MITC95 [4] [µM]
1 | C[n+]1c2ccc(OC[C@H](O/N=C(\C(=O)N[C@@H]3C(=O)N(OS(=O)(=O)[O-])C3(C)C)c3csc(N)n3)C(=O)O)cc2cn1[C@@H]1CCNC1 [Example 56, (S)-3-((Z)-2-(2-Aminothiazol-4-yl)-2-(((S)-1-carboxy-2-((1-methyl-2-((R)-pyrrolidin-3-yl)-2H-indazol-1-ium-5-yl)oxy)ethoxy)imino)acetamido)-2,2-dimethyl-4-oxoazetidin-1-yl Sulfate] | 6.25 | 6.25 | 0.78 | 6.25
2 | C[n+]1c2ccc(OC[C@H](O/N=C(\C(=O)N[C@@H]3C(=O)N(OS(=O)(=O)O)C3(C)C)c3csc(N)n3)C(=O)O)cc2cn1C[C@@H]1CCNC1 [Example 57, (S)-3-((Z)-2-(2-aminothiazol-4-yl)-2-(((S)-1-carboxy-2-((1-methyl-2-(((R)-pyrrolidin-3-yl)methyl)-2H-indazol-1-ium-5-yl)oxy)ethoxy)imino)acetamido)-2,2-dimethyl-4-oxoazetidin-1-yl sulfate] | 3.13 | 12.5 | 0.39 | 6.25
3 | C[n+]1c2ccc(OC[C@H](O/N=C(\C(=O)N[C@@H]3C(=O)N(OS(=O)(=O)O)C3(C)C)c3csc(N)n3)C(=O)O)cc2cn1CC1CCNCC1 [Example 58, (S)-3-((Z)-2-(2-aminothiazol-4-yl)-2-(((S)-1-carboxy-2-((1-methyl-2-(piperidin-4-ylmethyl)-2H-indazol-1-ium-5-yl)oxy)ethoxy)imino)acetamido)-2,2-dimethyl-4-oxoazetidin-1-yl sulfate] | 1.56 | 6.25 | 0.39 | 6.25
4 | C[n+]1c2ccc(OC[C@H](O/N=C(\C(=O)N[C@@H]3C(=O)N(OS(=O)(=O)O)C3(C)C)c3csc(N)n3)C(=O)O)cc2cn1C1CCNCC1 [Example 59, (S)-3-((Z)-2-(2-aminothiazol-4-yl)-2-(((S)-1-carboxy-2-((1-methyl-2-(piperidin-4-yl)-2H-indazol-1-ium-5-yl)oxy)ethoxy)imino)acetamido)-2,2-dimethyl-4-oxoazetidin-1-yl sulfate] | 3.13 | 6.25 | 0.39 | 6.25
5 | C[C@@H](N)Cn1cc2cc(OC[C@H](O/N=C(\C(=O)N[C@@H]3C(=O)N(OS(=O)(=O)O)C3(C)C)c3csc(N)n3)C(=O)O)ccc2[n+]1C [Example 60, (S)-3-((Z)-2-(((S)-2-((2-((R)-2-aminopropyl)-1-methyl-2H-indazol-1-ium-5-yl)oxy)-1-carboxyethoxy)imino)-2-(2-aminothiazol-4-yl)acetamido)-2,2-dimethyl-4-oxoazetidin-1-yl sulfate] | 12.5 | 12.5 | 1.56 | 12.5
6 | C[n+]1c2ccc(OC[C@H](O/N=C(\C(=O)N[C@@H]3C(=O)N(OS(=O)(=O)O)C3(C)C)c3csc(N)n3)C(=O)O)cc2cn1[C@H]1CC[C@H](N)CC1 [Example 61, (S)-3-((Z)-2-(((S)-2-((2-((1r,4S)-4-aminocyclohexyl)-1-methyl-2H-indazol-1-ium-5-yl)oxy)-1-carboxyethoxy)imino)-2-(2-aminothiazol-4-yl)acetamido)-2,2-dimethyl-4-oxoazetidin-1-yl sulfate] | 25 | 25 | 3.13 | 25
7 | C[n+]1c2ccc(OC[C@H](O/N=C(\C(=O)N[C@@H]3C(=O)N(OS(=O)(=O)O)C3(C)C)c3csc(N)n3)C(=O)O)cc2cn1CC(F)(F)CN [Example 62, (S)-3-((Z)-2-(((S)-2-((2-(3-amino-2,2-difluoropropyl)-1-methyl-2H-indazol-1-ium-5-yl)oxy)-1-carboxyethoxy)imino)-2-(2-aminothiazol-4-yl)acetamido)-2,2-dimethyl-4-oxoazetidin-1-yl sulfate] | 25 | 12.5 | 0.78 | 12.5
8 | C[n+]1c2ccc(OC[C@H](O/N=C(\C(=O)N[C@@H]3C(=O)N(OS(=O)(=O)O)C3(C)C)c3csc(N)n3)C(=O)O)cc2cn1[C@H]1CC[C@@H](N)CC1 [Example 63, (S)-3-((Z)-2-(((S)-2-((2-((1s,4R)-4-aminocyclohexyl)-1-methyl-2H-indazol-1-ium-5-yl)oxy)-1-carboxyethoxy)imino)-2-(2-aminothiazol-4-yl)acetamido)-2,2-dimethyl-4-oxoazetidin-1-yl sulfate] | 1.56 | 3.13 | 0.39 | 3.13
9 | C[n+]1c2ccc(OC[C@H](O/N=C(\C(=O)N[C@@H]3C(=O)N(OS(=O)(=O)[O-])C3(C)C)c3csc(N)n3)C(=O)O)cc2cn1[C@@H]1CNC[C@@H]1O [Example 64, (S)-3-((Z)-2-(2-Aminothiazol-4-yl)-2-(((S)-1-carboxy-2-((2-((3R,4S)-4-hydroxypyrrolidin-3-yl)-1-methyl-2H-indazol-1-ium-5-yl)oxy)ethoxy)imino)acetamido)-2,2-dimethyl-4-oxoazetidin-1-yl Sulfate] | 6.25 | 12.5 | 0.78 | 12.5
10 | C[n+]1c2ccc(OC[C@H](O/N=C(\C(=O)N[C@@H]3C(=O)N(OS(=O)(=O)O)C3(C)C)c3csc(N)n3)C(=O)O)cc2cn1[C@@H](CN)CO [Example 65, (S)-3-((Z)-2-(((S)-2-((2-((S)-1-amino-3-hydroxypropan-2-yl)-1-methyl-2H-indazol-1-ium-5-yl)oxy)-1-carboxyethoxy)imino)-2-(2-aminothiazol-4-yl)acetamido)-2,2-dimethyl-4-oxoazetidin-1-yl sulfate] | 25 | 25 | 1.56 | 12.5
11 | C[n+]1c2ccc(OC[C@H](O/N=C(\C(=O)N[C@@H]3C(=O)N(OS(=O)(=O)O)C3(C)C)c3csc(N)n3)C(=O)O)cc2cn1C[C@H]1CNC[C@H]1O [Example 66, (S)-3-((Z)-2-(2-aminothiazol-4-yl)-2-(((S)-1-carboxy-2-((2-(((3R,4S)-4-hydroxypyrrolidin-3-yl)methyl)-1-methyl-2H-indazol-1-ium-5-yl)oxy)ethoxy)imino)acetamido)-2,2-dimethyl-4-oxoazetidin-1-yl sulfate] | 6.25 | 12.5 | 0.78 | 6.25
12 | CC1(C)[C@H](NC(=O)/C(=N\O[C@@H](COc2ccc3c(c2)cn(CC2CNC2)[n+]3CC(O)CO)C(=O)O)c2csc(N)n2)C(=O)N1OS(=O)(=O)O (stereo partly drawn) [Example 67, (3S)-3-((Z)-2-(2-aminothiazol-4-yl)-2-(((1S)-2-((2-(azetidin-3-ylmethyl)-1-(2,3-dihydroxypropyl)-2H-indazol-1-ium-5-yl)oxy)-1-carboxyethoxy)imino)acetamido)-2,2-dimethyl-4-oxoazetidin-1-yl Sulfate] | 3.13 | 12.5 | 0.78 | 3.13
13 | C[n+]1cc2cc(OC[C@H](O/N=C(\C(=O)N[C@@H]3C(=O)N(OS(=O)(=O)O)C3(C)C)c3csc(N)n3)C(=O)O)ccc2cc1NCC1CNC1 [Example 68, (S)-3-((Z)-2-(2-Aminothiazol-4-yl)-2-(((S)-2-((3-((azetidin-3-ylmethyl)amino)-2-methylisoquinolin-2-ium-7-yl)oxy)-1-carboxyethoxy)imino)acetamido)-2,2-dimethyl-4-oxoazetidin-1-yl Sulfate] | 3.13 | 6.25 | 0.39 | 6.25
14 | CC1(C)[C@H](NC(=O)/C(=N\O[C@@H](COc2ccc3nc(NC4CCN(CC5CNC5)CC4)ccc3c2)C(=O)O)c2csc(N)n2)C(=O)N1OS(=O)(=O)O [Example 69, (S)-2-((((Z)-1-(2-aminothiazol-4-yl)-2-(((S)-2,2-dimethyl-4-oxo-1-(sulfooxy)azetidin-3-yl)amino)-2-oxoethylidene)amino)oxy)-3-((2-((1-(azetidin-3-ylmethyl)piperidin-4-yl)amino)quinolin-6-yl)oxy)propanoic Acid] | 3.13 | 1.56 | 0.39 | 3.13
15 | CC1(C)[C@H](NC(=O)/C(=N\O[C@@H](COc2ccc3nc(NCCCNCC4CNC4)ccc3c2)C(=O)O)c2csc(N)n2)C(=O)N1OS(=O)(=O)O [Example 70, (S)-2-((((Z)-1-(2-aminothiazol-4-yl)-2-(((S)-2,2-dimethyl-4-oxo-1-(sulfooxy)azetidin-3-yl)amino)-2-oxoethylidene)amino)oxy)-3-((2-((3-((azetidin-3-yl-methyl)amino)propyl)amino)quinol-in-6-yl)oxy)propanoic acid] | 3.13 | 3.13 | 0.39 | 3.13
16 | CC1(C)[C@H](NC(=O)/C(=N\O[C@@H](COc2ccc3nc(NCCCN(CC4CNC4)CC4CNC4)ccc3c2)C(=O)O)c2csc(N)n2)C(=O)N1OS(=O)(=O)O [Example 71, (S)-2-((((Z)-1-(2-aminothiazol-4-yl)-2-(((S)-2,2-dimethyl-4-oxo-1-(sulfooxy)azetidin-3-yl)amino)-2-oxoethylidene)amino)oxy)-3-((2-((3-(bis(azetidin-3-yl-methyl)amino)propyl)amino)quinol-in-6-yl)oxy)propanoic acid] | 6.25 | 3.13 | 0.39 | 6.25
